Experimental data: the supplement of paper PMC10126150
Values marked as one replicate rest on one cluster of the flow cell; about a third of the high ones do not repeat.

system: ATP; test: switch fluorescence ratio, 500 uM ATP over buffer (Cy3 cluster intensity, sum of 5 cycles each) (fold (ratio)); higher = stronger signal-on switching upon ATP binding; sequences stand for … in TCGTCGGCAGCGTCAGATGTGTATAAGAGACAGTTTTTTTTTTTTTTTTTTTTTTTTT…TC; settings: aptamer strand: ATP DNA aptamer (quencher-CACCTGGGGGAGTATTGCGGAGGAAGG + anchor), 100 nM annealed; ATP concentration: 500 uM; one replicate
In short: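 Per cluster, summed Cy3 intensity from the target cycles was divided by that from the buffer cycles to give the fluorescence ratio, then averaged per switch-domain sequence. Clusters outside 100-1000 RFU were excluded. The Cy3-labelled switching-strand clusters, on a modified Illumina MiSeq flow-cell, were annealed to 100 nM quencher-labelled ATP aptamer and imaged in selection buffer, then after 15 min with 500 uM ATP at 22 °C, for five cycles with NaOH stripping and re-annealing between them.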
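Also: ATP exposure 15 min at 22 °C before imaging.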

| Sequence | switch fluorescence ratio |
| --- | --- |
| ACCAAGGGGC | 1.14 |
| ACCAATCCAT | 0.986 |
| ACCAATGCAA | 1.75 |
| ACCAATGGGT | 1.04 |
| ACCAATTGAT | 1.05 |
| ACCACCCGGC | 1.1 |
| ACCACGTTCG | 1.05 |
| ACCACTATAT | 1.09 |
| ACCAGACTTG | 1.01 |
| ACCAGCGCTA | 1.04 |
| ACCAGGAGCG | 0.812 |
| ACCATGAACT | 1.03 |
| ACCATGAATT | 1.03 |
| ACCATTATAA | 1.03 |
| ACCATTTAC | 1.16 |
| ACCCAGGTCT | 1.68 |
| ACCCAGTTCG | 1.06 |
| ACCCATTAGC | 1.06 |
| ACCCCAGCAT | 1.36 |
| ACCCCCACAC | 1.48 |
| ACCCCCACAT | 1.2 |
| ACCCCCAGGC | 1.7 |
| ACCCCCCAGT | 1.19 |
| ACCCCCCTTA | 1.21 |
| ACCCCGAGC | 1.16 |

| Sequence | switch fluorescence ratio |
| --- | --- |
| ACCCGACGAT | 1.48 |
| ACCCGACGTT | 1.29 |
| ACCCGGCTCA | 0.985 |
| ACCCGGGCCG | 0.955 |
| ACCCGGGGGA | 0.991 |
| ACCCGTCGGC | 1.01 |
| ACCCGTGTGG | 1.07 |
| ACCCGTTGCT | 1.07 |
| ACCCTATATC | 1.09 |
| ACCCTCGGGA | 0.972 |
| ACCCTCGTCC | 1.13 |
| ACCGAAAAGT | 1.09 |
| ACCGAAAGGA | 0.989 |
| ACCGACGAGT | 1.52 |
| ACCGACGGCG | 1.27 |
| ACCGAGATCG | 1.03 |
| ACCGAGATTG | 0.983 |
| ACCGAGGGGC | 1.03 |
| ACCGATGTT | 1.03 |
| ACCGATTCTG | 1.02 |
| ACCGCCACGG | 0.995 |
| ACCGCGGGGA | 1.02 |
| ACCGCGTGTT | 1.06 |
| ACCGCTCCTT | 1.07 |
| ACCGCTTTCT | 1.23 |

| Sequence | switch fluorescence ratio |
| --- | --- |
| ACCGGGTTG | 0.998 |
| ACCGGTAGCT | 0.983 |
| ACCGTATGTA | 1.18 |
| ACCGTCACTA | 1.26 |
| ACCGTCCAGA | 1.02 |
| ACCGTCTCGA | 1.02 |
| ACCGTGGTGG | 1.02 |
| ACCGTTGAAA | 1.01 |
| ACCTAAATCA | 1.02 |
| ACCTAAATTG | 0.977 |
| ACCTAACAGT | 1.17 |
| ACCTAAGTTC | 1.09 |
| ACCTACGCGT | 1.59 |
| ACCTACGGCG | 1.19 |
| ACCTAGACAT | 1.04 |
| ACCTAGACTG | 0.934 |
| ACCTAGGGC | 1.02 |
| ACCTCAAGCT | 1.15 |
| ACCTCCCCCC | 1.26 |
| ACCTCGAAGC | 1.54 |
| ACCTCTTGTG | 1.01 |
| ACCTGAAGA | 1.06 |
| ACCTGAAGGC | 1 |
| ACCTGCTAG | 0.986 |
| ACCTGCTGCA | 1.22 |

| Sequence | switch fluorescence ratio |
| --- | --- |
| ACCTGGACGG | 1.08 |
| ACCTGGGTG | 2.27 |
| ACCTGTAGGC | 1.15 |
| ACCTGTGCTG | 0.976 |
| ACCTTCTGCA | 1.39 |
| ACCTTCTTGC | 1.79 |
| ACCTTGTGAA | 0.971 |
| ACCTTTATTA | 0.984 |
| ACCTTTGGAG | 1.17 |
| ACCTTTTAGC | 1.04 |
| ACGAAAAATA | 0.934 |
| ACGAAAACCG | 1.03 |
| ACGAAAGTTT | 1.04 |
| ACGAAATAAT | 1.02 |
| ACGAACCAAA | 1.31 |
| ACGAACGGTG | 1.48 |
| ACGAACGTCC | 1.28 |
| ACGAAGTCCT | 0.968 |
| ACGAAGTCGA | 1.01 |
| ACGAATACGT | 1.07 |
| ACGACAGCCT | 1.25 |
| ACGACGGCGT | 1.01 |
| ACGACTAGCT | 1.08 |
| ACGAGAAAT | 1.07 |
| ACGAGATGGG | 1.03 |

| Sequence | switch fluorescence ratio |
| --- | --- |
| ACGAGCAGGG | 1.23 |
| ACGAGCCGGG | 1.04 |
| ACGAGGTATT | 0.987 |
| ACGAGGTCTA | 1.01 |
| ACGAGTGGTT | 1.07 |
| ACGATACGGG | 1.45 |
| ACGATCCTGG | 1.38 |
| ACGATGTTTT | 0.98 |
| ACGCAATGTG | 1.44 |
| ACGCACAACC | 1.39 |
| ACGCAGCTTT | 1.89 |
| ACGCAGGGGT | 1.15 |
| ACGCAGTTAG | 1.09 |
| ACGCCCATTG | 1.17 |
| ACGCCGCATT | 3.12 |
| ACGCCGTAGG | 0.966 |
| ACGCCGTTTA | 1.03 |
| ACGCCTGACA | 1.15 |
| ACGCGAGACG | 1.22 |
| ACGCGAGTAA | 1.02 |
| ACGCGCTCGG | 1.05 |
| ACGCGGGAGA | 1.05 |
| ACGCGGTAAA | 1.02 |
| ACGCGGTGAG | 1.03 |
| ACGCGTTTCT | 1.02 |

| Sequence | switch fluorescence ratio |
| --- | --- |
| ACGCTAACGG | 1.17 |
| ACGCTATGCA | 1.11 |
| ACGCTCACTA | 1.34 |
| ACGCTCGTTG | 1.03 |
| ACGCTCTATT | 1.02 |
| ACGCTGGAGT | 0.946 |
| ACGCTTCCAG | 1.03 |
| ACGCTTTGAA | 1.03 |
| ACGGAAGG | 1.05 |
| ACGGAAGGCC | 1.09 |
| ACGGACATCG | 1.07 |
| ACGGACCGGA | 1.08 |
| ACGGAGAGTG | 1.03 |
| ACGGAGCGCA | 2.67 |
| ACGGATTCAC | 1.17 |
| ACGGCATGTG | 1.05 |
| ACGGCGCTTT | 1.48 |
| ACGGCGGAGT | 0.98 |
| ACGGCGGCAA | 0.985 |
| ACGGCGTGCG | 0.993 |
| ACGGCGTGGT | 0.986 |
| ACGGCTCCCG | 1.01 |
| ACGGCTCCGC | 1.51 |
| ACGGGAAACA | 1.02 |
| ACGGGAAAGA | 1.05 |

| Sequence | switch fluorescence ratio |
| --- | --- |
| ACGGGAACT | 1.08 |
| ACGGGAAGTC | 1.1 |
| ACGGGACTG | 1.02 |
| ACGGGAGTAA | 0.858 |
| ACGGGGCGCG | 0.964 |
| ACGGGTACTT | 1.11 |
| ACGGGTATC | 0.988 |
| ACGGGTCAAG | 0.963 |
| ACGGGTTAAA | 1.01 |
| ACGGGTTATG | 1.05 |
| ACGGTAATGA | 1.06 |
| ACGGTACCAT | 1.34 |
| ACGGTACTGC | 1.46 |
| ACGGTCATGC | 1.19 |
| ACGGTCTTTT | 1.03 |
| ACGGTGAGCG | 0.989 |
| ACGGTTGTCA | 0.977 |
| ACGTACAACG | 1.28 |
| ACGTACAGTT | 1.39 |
| ACGTAGAAGA | 1.09 |
| ACGTAGAGTA | 1.12 |
| ACGTAGCCGC | 1.18 |
| ACGTAGTTCT | 0.987 |
| ACGTATTTGC | 1.16 |
| ACGTCACTGA | 1.49 |

| Sequence | switch fluorescence ratio |
| --- | --- |
| ACGTCGCCGT | 0.859 |
| ACGTCGGTTG | 1.04 |
| ACGTCGTCAG | 0.975 |
| ACGTCTGGGT | 0.99 |
| ACGTGATCTA | 1.04 |
| ACGTGCAGCA | 0.954 |
| ACGTGCGGCT | 1 |
| ACGTGCTAAG | 1 |
| ACGTGCTTGC | 0.989 |
| ACGTGCTTTG | 1.01 |
| ACGTGGCGAC | 1.18 |
| ACGTGGCGGC | 1.02 |
| ACGTGGGTGT | 0.973 |
| ACGTGGTGCT | 1.04 |
| ACGTGTCCAG | 0.98 |
| ACGTGTCGG | 1.01 |
| ACGTGTCTGA | 1.03 |
| ACGTGTCTGG | 0.987 |
| ACGTGTGGTC | 1 |
| ACGTTACGG | 1.62 |
| ACGTTACTAA | 1.33 |
| ACGTTCATGA | 1.06 |
| ACGTTGAGA | 1.01 |
| ACGTTGCCAA | 1.05 |
| ACGTTGTGTT | 0.974 |
